The campaign covered roughly 230,000 compounds. About 3,600 (1.6%) were called active. Inconclusive results, whose numbers are uncertain, are shown with a selection of clear calls. Calls follow the shape of the dose curve; as a rule, active = well fitted inhibition curve with a large enough effect (not every such curve was filed as active); inconclusive = small, poorly fitted or top-dose-only effect, or another doubt; inactive = no such curve, though single readings can be large or run the other way. Where the call is inconclusive, the potency comes from a doubtful curve fit.
molecular target: Lysine-specific demethylase 4E (Homo sapiens) (UniProt B2RXH2); assay: qHTS Assay for Inhibitors of Human Jumonji Domain Containing 2E (JMJD2E); details: JMJD2E catalytic domain, FDH-coupled NADH fluorescence (FDH is formaldehyde dehydrogenase); series mostly up to 57.1 µM; activity change, negative = inhibition: at the top concentration
Chain of UniProt B2RXH2 (B2RXH2 whole entry, looked up, the tested form may be a part): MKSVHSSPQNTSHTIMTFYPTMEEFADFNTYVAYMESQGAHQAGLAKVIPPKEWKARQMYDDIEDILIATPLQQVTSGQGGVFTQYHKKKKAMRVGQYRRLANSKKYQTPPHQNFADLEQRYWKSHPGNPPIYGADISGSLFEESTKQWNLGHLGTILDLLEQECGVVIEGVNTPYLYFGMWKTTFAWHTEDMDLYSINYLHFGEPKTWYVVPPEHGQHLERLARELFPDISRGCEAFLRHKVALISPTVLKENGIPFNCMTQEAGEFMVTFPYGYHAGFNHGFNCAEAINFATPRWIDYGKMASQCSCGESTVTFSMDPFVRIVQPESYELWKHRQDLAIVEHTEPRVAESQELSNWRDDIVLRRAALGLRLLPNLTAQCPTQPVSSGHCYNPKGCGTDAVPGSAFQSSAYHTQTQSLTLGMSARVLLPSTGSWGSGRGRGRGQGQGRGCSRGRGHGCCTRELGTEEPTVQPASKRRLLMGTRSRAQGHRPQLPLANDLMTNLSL
Also: nearly all actives have a fitted effect of over 50% in size.
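For activity change, negative = inhibition in this document: 0% = wells with enzyme and -100% = buffer wells without enzyme.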
Potency is read from the fitted curve at half-maximal effect; tags tell the direction and shape of the fitted curve.

Compound	Potency	activity change, negative = inhibition
COCCOC(=O)C1=C(C)NC2=C(C(=O)CC(C)(C)C2)C1c1ccc2c(c1)OCO2 (centres undefined)	inconclusive: 28.2 µM [inhibitor, single point]	–
CCOC(=O)c1c(-n2cnnn2)sc(C)c1C	inconclusive: 31.6 µM [inhibitor, partial curve]	–
COc1ccc(/C=N/NS(=O)(=O)c2ccc(F)cc2)cc1COc1cc(F)ccc1[N+](=O)[O-]	inconclusive: 39.8 µM [inhibitor, single point]	–
O=C(NCc1ccccn1)Nc1cccc(NC(=O)NCc2ccccn2)c1	–	inactive: 3.29%
O=C(Cn1cnc([N+](=O)[O-])n1)N/N=C/c1ccc(O)cc1O	inconclusive: 35.5 µM [inhibitor, single point]	–
N#C/C(=C/c1ccc(Br)o1)C(N)=S	inconclusive: 31.6 µM [inhibitor, partial curve, poor fit]	–
COc1ccc(S(=O)(=O)N2CCC(C(=O)N3CCCC3)CC2)cc1	–	inactive: -0.743%
Cc1cccc(-n2c(C)cc(/C=N/NC(=O)c3ccc(CN4CCOCC4)cc3)c2C)c1	inconclusive: 25.1 µM [inhibitor, single point]	–
Oc1ccccc1N=Cc1c(O)ccc2oc3c(c12)CCCC3	inconclusive: 35.5 µM [inhibitor, single point]	–
CCCOC(=O)c1cccc(Nc2nc(-c3cccnc3)nc3ccccc23)c1	inconclusive: 25.1 µM [inhibitor, partial curve]	–
CCN(CC)c1ccc(C=Nc2cc(C)cc(C)c2)c(O)c1	–	inactive: -0.486%
CCOC(=O)C1CCCN(Cc2ccc(OCC)cc2)C1 (centres undefined)	inconclusive: 22.4 µM [inhibitor, single point]	–
c1ccc2c(-c3nc(-c4ccncc4)no3)cccc2c1	inconclusive: 25.1 µM [inhibitor, partial curve]	–
C(=NCCCN1CCOCC1)c1ccc2c(c1)OCO2	inconclusive: 39.8 µM [inhibitor, single point]	–
O=C(O)C(Cc1c[nH]c2ccccc12)NS(=O)(=O)c1ccccc1 (centres undefined)	–	inactive: 17.2%
O=C(/C=C/c1cccs1)Nc1ccc(N2CCOCC2)c(S(=O)(=O)Nc2cc(Cl)ccc2Cl)c1	inconclusive: 35.5 µM [inhibitor, single point]	–
CN(C)c1ccc(NS(=O)(=O)c2cc(Cl)ccc2Cl)cc1	–	inactive: -6.9%
O=c1c(-c2n[nH]c(=S)o2)cccn1Cc1ccccc1	inconclusive: 12.6 µM [inhibitor, partial curve]	–
O=C(N/N=C/c1ccc(-c2ccccc2)o1)c1ccccc1O	inconclusive: 31.6 µM [inhibitor, single point]	–

— PubChem BioAssay AID2147 (National Center for Advancing Translational Sciences (NCATS), 2009)
